PubChem BioAssay AID485294 (National Center for Advancing Translational Sciences (NCATS), 2010)
Out of some 370,000 compounds screened, about 150 (0.041%) were called active. This list was built around the results that the source calls inconclusive (neither active nor inactive); the mix of calls is not that of the screen. Calls come from the whole dose curve; as a rule, active = well fitted inhibition curve with a large enough effect; inconclusive = small, poorly fitted or top-dose-only effect; inactive = flat fitted curve, though single readings scatter. No potency is given beside an inconclusive call; the fits are too rough.

Molecular target: Beta-lactamase (Escherichia coli (strain K12)) (UniProt P00811)
Assay: qHTS Inhibitors of AmpC Beta-Lactamase (assay with detergent); note: nearly all actives have a fitted effect of over 25% in size;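 for activity change, negative = inhibition: 0% = no-compound wells and -100% = no-enzyme wells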
Settings: AmpC hydrolysis of nitrocefin, absorbance 480 nm, 0.01% Triton; activity change, negative = inhibition: at 114 µM (top of the series)
In short: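 AmpC (5.3 nM in the dispensed reagent) in 20 mM phosphate pH 7.0 with 0.01% (detergent screen) or 0.0001% Triton X-100 was preincubated with compounds for 15 min at room temperature. Nitrocefin was then added from an 800 uM solution, and hydrolysis was followed at 480 nm.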
Potency is the fitted concentration of half-maximal effect; tags give direction and shape of the fitted curve.

Sequence of UniProt P00811 (P00811 whole entry, looked up): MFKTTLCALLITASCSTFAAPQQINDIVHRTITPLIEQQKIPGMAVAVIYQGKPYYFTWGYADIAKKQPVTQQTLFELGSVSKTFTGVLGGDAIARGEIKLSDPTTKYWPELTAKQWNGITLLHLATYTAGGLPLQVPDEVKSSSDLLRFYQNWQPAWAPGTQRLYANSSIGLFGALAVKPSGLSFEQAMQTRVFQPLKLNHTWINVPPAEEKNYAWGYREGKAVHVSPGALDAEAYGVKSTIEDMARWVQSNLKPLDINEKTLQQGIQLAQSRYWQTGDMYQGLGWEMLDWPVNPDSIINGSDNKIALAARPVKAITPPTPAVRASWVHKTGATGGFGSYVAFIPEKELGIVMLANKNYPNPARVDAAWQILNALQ

Structure (SMILES) | activity change, negative = inhibition | Potency
O=C(N/C=C/c1ccco1)NCc1ccccc1 | inactive: -5.77% | 
Cc1ccc(C)c(NC(=S)Nc2cccc3cnccc23)c1 | inactive: -6.65% | 
CCC(C(=O)N1CCN(c2ccccn2)CC1)n1nc(C)n2c(cc3occc32)c1=O (configuration not stated) |  | inconclusive [inhibitor, partial curve]
COc1ccc(S(=O)(=O)NCc2ccc(C(=O)O)cc2)cc1 | inactive: -8% | 
Cn1nc(-c2ccccc2F)c2cc(C(=O)NCc3ccc(Cl)cc3)sc21 | inactive: -3.63% | 
Cc1sc2ncn(CC(=O)N3CCN(c4ccccn4)CC3)c(=O)c2c1S(=O)(=O)N1CCC(C)CC1 |  | inconclusive [inhibitor, full curve, poor fit]
Cc1ccc(C)c(-c2cc(C(=O)Nc3cccnc3)c3ccccc3n2)c1 | inactive: -0.0633% | 
CCc1ccccc1NC(=S)N1N=CCC1c1ccccc1 (configuration not stated) | inactive: 0.464% | 
O=C(CN1C(=O)c2ccccc2C1=O)Nc1ccc(-c2nc3ccccc3o2)cc1 |  | inconclusive [inhibitor, partial curve, poor fit]
C(=C\c1ccccc1)/CN1CCN(Cc2ccc3c(c2)OCO3)CC1 |  | inconclusive [inhibitor, partial curve, poor fit]
Cc1[nH]c2ccccc2c1/C=N/NC(=O)c1ccccc1 | inactive: -2.95% | 
O=c1c(Cc2c(F)cccc2Cl)c(O)ccn1C1CC1 |  | inconclusive [inhibitor, full curve, poor fit]
COc1cc(-c2c(C#N)c(N)nc3c2c(C)nn3-c2ccc(C)c(C)c2)cc(OC)c1OC | inactive: -12.5% | 
COc1ccccc1CNS(=O)(=O)c1ccc(-c2cc(C(F)(F)F)on2)s1 | inactive: 0.756% | 
Cc1cc(C)c2c(CN3CCN(Cc4ccc5c(c4)OCO5)CC3)cc(=O)oc2c1 |  | inconclusive [inhibitor, partial curve, poor fit]
CCOC(=O)CSc1nncc2ccc(OC)c(OC)c12 |  | inconclusive [inhibitor, single point]
COC(=O)c1ccc(C(=O)NC(=S)Nc2ccc3nc(SC)sc3c2)cc1 | inactive: 3.54% | 
Cc1ccccc1NC(=O)N(C(C)C)C(C)C |  | inconclusive [inhibitor, partial curve]
CCOc1ccccc1NC(=O)COC(=O)c1cn(CC)c2nc(C)ccc2c1=O | inactive: 29.6% | 
O=C(CN1C(=O)c2ccccc2C1=O)Nc1cccc2cccnc12 |  | inconclusive [inhibitor, full curve, poor fit]
COc1ccc([N+](=O)[O-])cc1NC(=O)C(C)OC(=O)/C=C/c1ccco1 (configuration not stated) | inactive: -2.66% | 
CCOC(=O)CSC1=Nc2ccccc2C2=NC(CC(=O)NCc3ccc4c(c3)OCO4)C(=O)N12 (configuration not stated) |  | inconclusive [inhibitor, full curve]
